# Reference: the supplement of paper PMC11417369
# ± gives the standard deviation of the averaged measurements. Some of the results follow.
# Tested on: PfAP2-I AP2 domain 3 (GST-tagged)
# Assay: gcPBM binding intensity (ln(normalized median fluorescence intensity)); higher = stronger DNA binding
# Procedure, shortened: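 An Agilent 4 × 180k array of primer-extended double-stranded 36-bp intergenic genomic probes, with negative controls, was incubated for 1 h with GST-tagged P. falciparum DNA-binding domains expressed in E. coli. Alexa488 anti-GST antibody detected bound protein, scanned at 488 nm. Binding intensity is the highest Masliner-normalised natural-log median intensity across replicate spots of either probe orientation.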
row,Sequence,gcPBM binding intensity (ln)
1,TTATAATTTTTGAGCACACACAAGCATATATATATA [CACACA_site1798],9.475 ± 0.049
2,TATATATGTATATGTGTGCACCTTATTTCTTTTATT [GTGCAC_site9513],10.2 ± 0.15
3,TATGTATTATCAAAAAGTACTAAAAAAAAATAATAA [XGTACX_site4703],7.91 ± 0.54
4,ATAAATGTTATGCATACACACTTTATACCTATTTAA [CACACA_site5967],8.12 ± 0.7
5,CCTTTTAAGAGTTGCACACGTACAAAAAAAAAAAAA [CACACA_site3492],8.68 ± 0.26
6,ACACATAAATGTATATATATATAAATATATGTATGT [CACACA_negctrl_site1532],7.54 ± 0.3
7,AATAATAAAAAATACGCACACATGTAAACGTATGTT [CACACA_site3336],8.03 ± 0.26
8,GGCGATATAGAACTACGTACTTATACAAATTATAAT [XGTACX_site2307],7.92 ± 0.31
9,ATAGCAATAATGGAAAGTACAAAAAAACTTGTTATA [XGTACX_site8518],7.68 ± 0.64
10,TATATATATATATATAAGCTTATAATAAAACAAAAA [XGTACX_negctrl_site568],9.49 ± 0.52
11,TGTATTAATAAAAATACACACATCATATTATATAAA [CACACA_site3534],7.61 ± 0.41
12,AAAGGGGAGATATGAACACACAAAAAAAAAATATAT [CACACA_site7378],7.9 ± 0.48
13,AGAAAGGATATAAGCGTAGCTATATCATAAAAAATG [GTGCAC_negctrl_site332],7.58 ± 0.74
14,AAATAAAATTTTTGTTGTACTTATTTTTAGTATACT [XGTACX_site4254],7.75 ± 0.38
15,AATATTTACAGACATGCGCACACATAAATAAATAAT [CACACA_site8760],8.46 ± 0.61
16,TATATATATTTTAAATGTACTTATAAATTACCACTT [XGTACX_site5673],8.11 ± 0.34
17,GTATATATATATTTATGTACTTACCTACATAATTAT [XGTACX_site4435],7.81 ± 0.52
18,TAAATAAATTTGCACTGTACGCAAAAAAAAAAAAGA [XGTACX_site8781],10.2 ± 0.6
19,TGAAAAAAAAAATGCACACGCATACATATAATATGT [CACACA_site641],8.37 ± 0.49
20,AAACATAAATATGAGAGTACAAAAAATATTATGAAT [XGTACX_site151],7.96 ± 0.69
21,TTATAATATATTACAAGTTCATTCATATAATATGTT [CACACA_negctrl_site1695],7.43 ± 0.52
22,ATCTCTTAAATTTTACGTACTTATTTTATCTTCTTA [XGTACX_site8877],8.34 ± 0.3

row,Sequence,gcPBM binding intensity (ln)
1,AAAAATAAAATATATATATATATATATATATATATA [CACACA_negctrl_site58],9.31 ± 0.64
2,AATAAATACATACATACATGCATACATATATCTCAA [TGCATGCA_site1040],8.09 ± 0.42
3,TATTTTTATATATATACACACTTACAGATATATATT [CACACA_site5905],7.79 ± 0.64
4,ATATGTAAAATGAAGATACATACATACATACATACA [CACACA_negctrl_site715],8.8 ± 0.41
5,ATATTATATATATGATGTACTAAATATATTATTATG [XGTACX_site1703],7.71 ± 0.18
6,ATGTTATAAAATATATGTACATATTTATATAAAATA [XGTACX_site5766],7.78 ± 0.26
7,TATATAAAAAGTAATTGTACATATATATATATATAT [XGTACX_site7953],9.35 ± 0.45
8,ATATATTTATATAAATGTACACGTGAATATATAATA [XGTACX_site1166],8.08 ± 0.57
9,TTTATATTCTTTTTTTAACACACAAAAAAAATAAAA [CACACA_site8574],7.88 ± 0.29
10,TCTATTAATGAATATACACACATTATATATATATAT [CACACA_site5410],9.14 ± 0.28
11,TATTTTATATTATCATGTACAAAAAAAAAGAAAAGA [XGTACX_site5379],7.9 ± 0.33
12,ATAAATAATTAGAATTGTACAAAAATTATATATATG [XGTACX_site5107],7.67 ± 0.34
13,AAAAGGAACGGACACACACACATATATATATATATA [CACACA_site5894],9.31 ± 0.2
14,TATGCAAATTAATAATGTACGAAATATTTATAATTT [XGTACX_site2324],7.75 ± 0.57
15,AATAAATTAGAAGGATGTACTTTGTTTAATATAGAG [XGTACX_site1943],7.83 ± 0.37
16,TAATATAATCTGAGTGCACACAAATAAATAAACATA [CACACA_site8032],10.5 ± 0.14
17,AGGTTATATATGAACAAAAATAAAATATTCATAGGC [TGCATGCA_negctrl_site46],7.67 ± 0.86
18,AACAAAATAAAACACACACACAAATGTACATATATA [CACACA_site2424],8.05 ± 0.14
19,TAGAAGCATCATTTTACACACATGCAAATGTAAACT [CACACA_site6973],7.91 ± 0.64
20,ATTTTGTATTGACGCTGTACAAACATTAATATAATA [XGTACX_site2496],7.77 ± 0.37
21,TTTTGCGTAGCAACGAGGTTTTTAAAAATGTAACCA [GTGCAC_negctrl_site691],7.63 ± 0.67
22,TTTTTTTTTATTATCATGCACACATTTTTTTTTTTT [CACACA_site2254],8.86 ± 0.67

row,Sequence,gcPBM binding intensity (ln)
1,ACATATGAATATTTTTGTACGTATATTGTTATTCTT [XGTACX_site4720],7.82 ± 0.57
2,AAAAAAAAAAAACACACACACACATACAAAATATAT [CACACA_site1448],7.86 ± 0.43
3,AATTATACGAAATAAAACTTAATAGACAAAAAATTA [CACACA_negctrl_site1384],7.54 ± 0.63
4,GTAATTTAAATAACAAGTACTAATGTGGATAAGCAG [XGTACX_site1163],8.59 ± 0.35
5,GTATATTTAAATAAAAGTACGTAAAGATATATTTAA [XGTACX_site8087],7.96 ± 0.23
6,ATAATATGCAATATTACACACAATTCATCATTTTTT [CACACA_site7477],7.87 ± 0.76
7,AATTATATACCATGCACACAAATATTCATACAGGAA [CACACA_site4057],8.34 ± 0.41
8,TTTTCATTCTTATATAAATATTATTTTATATAAAAT [GTGCAC_negctrl_site674],7.58 ± 0.42
9,ATATATGAAAATATATGTACACAACATATAAAATAG [XGTACX_site5132],7.99 ± 0.43
10,AAAAATATATATATATTTCTTCTTTGTTAAAATGTA [CACACA_negctrl_site1459],7.42 ± 0.42
11,GTAGAATCAGTATTCACACATAAATGTATCCAAATG [CACACA_site5395],7.62 ± 0.63
12,ATATATATATATAGAAGTACTCTTATATATTTTATA [XGTACX_site1384],9.22 ± 0.26
13,GATATGGAATATATGTGTACATATATATATATTATA [XGTACX_site1724],7.75 ± 0.28
14,AAAAAAAAAAAAAATACACACACATAAAAAAAAAAA [CACACA_site8555],8.24 ± 0.75
15,CAAATTTTTAAAAATGCATGTTCATCCATCCCATAT [TGCATGCA_site467],7.79 ± 0.81
16,TTTGTATGATCATAAAGTACTAATTTACATTCAGCA [XGTACX_site8596],7.54 ± 0.5
17,ATAATAAACATATATGTACACACATATACATATATA [CACACA_site8924],7.97 ± 0.38
18,AACACACACATATATATATATATATATATATATATA [GTGCAC_negctrl_site573],9.25 ± 0.73
19,TTTTTAATATTGTATGCATGTCGTAATAAAAAATTT [TGCATGCA_site259],7.97 ± 0.67
20,ATATACTATTAACCACATATGTGTGTTAATTTATAT [GTGCAC_negctrl_site315],7.82 ± 0.52
21,TGCTATTTCATATTCTGTACTAAAACAAGATAATAA [XGTACX_site3852],7.97 ± 0.3
22,ATATTAATTATAACTTGTACGTAAAAGGAAAACAAT [XGTACX_site3269],8.19 ± 0.42

row,Sequence,gcPBM binding intensity (ln)
1,TTGAACCCCACTAACACACACACGCACGCTCAGAAA [CACACA_site2983],8.3 ± 0.62
2,TAGAAACTATGTAATGCACACCAAAATAAAATTATT [CACACA_site8578],10.4 ± 0.33
3,TTTTAAAAAATAAAATATTATTGAAGTAAAATATGA [CACACA_negctrl_site758],7.5 ± 0.53
4,TTTTGGATACTTCATTTGTCCTGTTTTTTTTTTTTA [CACACA_negctrl_site399],7.61 ± 0.68
5,AAAATATATCAAAACACACTCACATATAATACTTAC [CACACA_site6031],7.64 ± 0.64
6,TATATACTTATATACTGTACTCATCATCTTTTAAAG [XGTACX_site6099],7.92 ± 0.22
7,TTTTTTTTTTTTTAAACATGCAAAATATATAATTTT [TGCATGCA_site633],7.91 ± 0.62
8,TAATATATCTATAATACACACTATTCTAATCACATA [CACACA_site6731],7.72 ± 0.48
9,TAATACATAAATAATGTGCACATGGAAATATATCTT,9.56 ± 0.32
10,AAAAAAAAAAAAAAATCACACACAATATGAATTTAT [CACACA_site8100],8.11 ± 0.69
11,TATTTTATATACAGTGGTACTTTTTTTTTTTTTTTT [XGTACX_site2475],8.64 ± 0.45
12,AAAAAAAAAAAAAAAACACACATTTGAAGAAAAAAA [CACACA_site7389],8.76 ± 0.52
13,AATTGCTTCAAAATTAAACACACACTAATAAAAAAA [CACACA_site8855],7.92 ± 0.71
14,ACATATATATTATAAGCATGCATGAGAAAATTTTTA [TGCATGCA_site1054],7.98 ± 0.3
15,ATGAATGAATACGTTTTACACACTTGAATATAATTT [CACACA_site8237],7.69 ± 0.64
16,AACATAACAAAAAAAAAAAAAAATATATATATATAT [TGCATGCA_negctrl_site370],9.565 ± 0.035
17,TATTTCACAAAAAAAAAAAAAAAAAAGAAGCAAAAA [CACACA_negctrl_site1040],7.61 ± 0.64
18,GTATATTGTACCATCACACATGTAAAACATAGATGT [CACACA_site5359],7.9 ± 0.42
19,TCCTTAAAAAAACCTTAACACACATAAACTATAATT [CACACA_site9001],7.66 ± 0.61
20,TTTTTTTTTAAGTTTGCACACATGGAAGACAAAAAT [CACACA_site2505],8.98 ± 0.39
21,TTTTTTACATTCTGCACACAATTTATTTTTTTTTTT [CACACA_site4188],9.27 ± 0.32
